Measured values from the supplement of paper PMC4967469.
pIC50: −log10 of the molar value. IC50 is the fitted dose that halves viability relative to control wells, and lower means more sensitive; a limit (>, <) means that the fit lies beyond the doses tested. AUC is the area under the same curve over the 256-fold range up to the top dose, as a fraction; it is 1 without any effect and falls as sensitivity rises. For some assays here: The top dose, if marked as inferred, was calculated from the reported fits.

How the values were obtained:
Experiment in all cases: Viability of human cancer cell lines after 72 h of drug (GDSC screen)
[1] = compound: C=CC(=O)Nc1cc(-n2c(=O)ccc3cnc4ccc(-c5ccc(NS(C)(=O)=O)cc5)cc4c32)ccc1C [BMX-IN-1 (QL-XII-61)]; conditions: top dose 10 µM; top dose inferred
Experimental: (§1)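 Human cancer cell lines in 384-well plates, medium with 10% serum, drug for 72 h over a 256-fold dose range (nine 2-fold or five 4-fold steps up to the top dose). Adherent lines were fixed and stained with the nucleic acid dye Syto60, suspension lines read with resazurin; signal relative to control wells, capped at 0 and 100%. One two-parameter sigmoid per drug and line, fitted in a mixed model over all curves with the slope shared within a line.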

[2] = compound: C=CCNC1=C2C[C@@H](C)C[C@H](OC)[C@H](O)[C@@H](C)/C=C(\C)[C@H](OC(N)=O)[C@@H](OC)/C=C\C=C(/C)C(=O)NC(=CC1=O)C2=O [17-AAG]; conditions: top dose 1 µM
Experimental: as §1

[3] = compound: CCc1cc(-c2n[nH]c(C)c2-c2ccc3c(c2)OCCO3)c(O)cc1O [CCT018159]; conditions: top dose 10 µM; top dose inferred
Experimental: as §1

[4] = compound: CN(C)Cc1cccc(N=C(c2ccccc2)c2c(O)[nH]c3cc(C(=O)N(C)C)ccc23)c1 [BIX02189]; conditions: top dose 20 µM; top dose inferred
Experimental: as §1

[5] = compound: COC(=O)CNC(=O)C(=O)OC [Dimethyloxalylglycine]; conditions: top dose 4000 µM; top dose inferred
Experimental: as §1

[6] = compound: COc1cccc2c1C(=O)c1c(O)c3c(c(O)c1C2=O)C[C@@](O)(C(=O)CO)C[C@@H]3O[C@H]1C[C@H](N)[C@H](O)[C@H](C)O1 [Doxorubicin]; conditions: top dose 1.024 µM
Experimental: as §1

[7] = compound: COc1cccc2cc(-c3nc([C@H]4CC[C@H](C(=O)O)CC4)n4ncnc(N)c34)[nH]c12 [OSI-027]; conditions: top dose 20 µM
Experimental: as §1

[8] = compound: CS(=O)(=O)c1ccc(C(=O)Nc2ccc(Cl)c(-c3ccccn3)c2)c(Cl)c1 [Vismodegib]; conditions: top dose 10 µM; top dose inferred
Experimental: as §1

[9] = compound: Cc1cnc(Nc2ccc(F)cc2Cl)nc1-c1c[nH]c(C(=O)N[C@H](CO)c2cccc(Cl)c2)c1 [VX-11e]; conditions: top dose 5.12 µM; top dose inferred
Experimental: as §1

[10] = compound: Cc1cnc(Nc2ccc(OCCN3CCCC3)cc2)nc1Nc1cccc(S(=O)(=O)NC(C)(C)C)c1 [TG101348]; conditions: top dose 10.24 µM
Experimental: as §1

[11] = compound: O=C(c1ccc(C(=O)N2CCC(N3CCCC3)CC2)c(Nc2ccccc2)c1)N1CCC(N2CCCC2)CC1 [UNC1215]; conditions: top dose 1 µM; top dose inferred
Experimental: as §1

| Cell Line | AUC [1] | pIC50 [1] | AUC [2] | pIC50 [2] | AUC [3] | pIC50 [3] | AUC [4] | pIC50 [4] | AUC [5] | pIC50 [5] | AUC [6] | pIC50 [6] | AUC [7] | pIC50 [7] | AUC [8] | pIC50 [8] | AUC [9] | pIC50 [9] | AUC [10] | pIC50 [10] | AUC [11] | pIC50 [11] |
| --- | --- | --- | --- | --- | --- | --- | --- | --- | --- | --- | --- | --- | --- | --- | --- | --- | --- | --- | --- | --- | --- | --- |
| HGC-27 (stomach, adherent) | 0.97 | < 5.00 | 0.29 | 7.75 | 0.844 | 5.25 | 0.956 | < 4.70 | 0.459 | 3.71 | 0.192 | 8.03 | 0.208 | 6.69 | 0.955 | < 5.00 | 0.965 | < 5.29 | 0.849 | 5.22 | 0.983 | < 6.00 |
| HSC-39 (stomach, suspension) | 0.981 | < 5.00 | 0.481 | 7.25 | 0.883 | 5.09 | 0.989 | < 4.70 | 0.851 | 2.62 | 0.99 | < 5.99 | 0.69 | 5.41 | 0.952 | < 5.00 | 0.99 | < 5.29 | 0.586 | 5.97 | 0.991 | < 6.00 |
| HT-115 (large intestine, adherent) | 0.942 | < 5.00 | 0.895 | < 6.00 | 0.975 | < 5.00 | 0.989 | < 4.70 | 0.478 | 3.66 | 0.991 | < 5.99 | 0.986 | < 4.70 | 0.991 | < 5.00 | 0.977 | < 5.29 | 0.954 | < 4.99 | 0.991 | < 6.00 |
| HT-1197 (bladder, adherent) | 0.982 | < 5.00 | 0.877 | < 6.00 | 0.887 | < 5.00 | 0.977 | < 4.70 | 0.534 |  | 0.692 | 6.61 | 0.855 | < 4.70 | 0.985 | < 5.00 | 0.96 | < 5.29 | 0.959 | < 4.99 | 0.983 | < 6.00 |
| Hs683 (glioma, adherent) | 0.987 | < 5.00 | 0.461 | 7.31 | 0.949 | < 5.00 | 0.979 | < 4.70 | 0.576 | 3.39 | 0.616 | 6.87 | 0.663 | 5.45 | 0.979 | < 5.00 | 0.982 | < 5.29 | 0.904 | < 4.99 | 0.987 | < 6.00 |
| Hs766T (pancreas, adherent) | 0.98 | < 5.00 | 0.675 | 6.64 | 0.973 | < 5.00 | 0.984 | < 4.70 | 0.724 | 2.87 | 0.954 | < 5.99 | 0.85 | < 4.70 | 0.971 | < 5.00 | 0.983 | < 5.29 | 0.972 | < 4.99 | 0.982 | < 6.00 |
| Hs939-T (melanoma, adherent) | 0.952 | < 5.00 | 0.52 | 7.15 | 0.923 | < 5.00 | 0.985 | < 4.70 | 0.714 | 2.97 | 0.671 | 6.70 | 0.974 | < 4.70 | 0.979 | < 5.00 | 0.935 | < 5.29 | 0.986 | < 4.99 | 0.98 | < 6.00 |
| Hs-578-T (breast, adherent) | 0.982 | < 5.00 | 0.541 | 7.09 | 0.955 | < 5.00 | 0.98 | < 4.70 | 0.794 | 2.71 | 0.921 | < 5.99 | 0.987 | < 4.70 | 0.979 | < 5.00 | 0.987 | < 5.29 | 0.956 | < 4.99 | 0.985 | < 6.00 |
| HuO9 (osteosarcoma, adherent) | 0.97 | < 5.00 | 0.547 | 7.07 | 0.764 |  | 0.969 | < 4.70 | 0.627 | 3.24 | 0.92 | < 5.99 | 0.578 | 5.68 | 0.952 | < 5.00 | 0.984 | < 5.29 | 0.592 | 5.93 | 0.982 | < 6.00 |
| HuP-T3 (pancreas, adherent) | 0.975 | < 5.00 | 0.715 | 6.53 | 0.901 | < 5.00 | 0.916 | < 4.70 | 0.586 | 3.34 | 0.62 | 6.83 | 0.792 | 4.94 | 0.981 | < 5.00 | 0.942 | < 5.29 | 0.827 | 5.09 | 0.979 | < 6.00 |
| IA-LM (large cell lung carcinoma, adherent) | 0.872 | < 5.00 | 0.975 | < 6.00 | 0.975 | < 5.00 | 0.97 | < 4.70 | 0.464 | 3.71 | 0.489 | 7.22 | 0.633 | 5.52 | 0.972 | < 5.00 | 0.886 | < 5.29 | 0.966 | < 4.99 | 0.976 | < 6.00 |
| IHH-4 (thyroid, semi-adherent) | 0.931 | < 5.00 | 0.452 | 7.32 | 0.852 | 5.26 | 0.968 | < 4.70 | 0.392 | 3.87 | 0.185 | 8.02 | 0.397 | 6.16 | 0.955 | < 5.00 | 0.902 | 5.37 | 0.947 | < 4.99 | 0.992 | < 6.00 |
| IST-MEL1 (melanoma, adherent) | 0.792 | 5.26 | 0.155 | 8.38 | 0.855 | < 5.00 | 0.951 | < 4.70 | 0.565 | 3.41 | 0.375 | 7.57 | 0.465 | 6.01 | 0.97 | < 5.00 | 0.971 | < 5.29 | 0.877 | < 4.99 | 0.976 | < 6.00 |
| JEG-3 (urogenital system, adherent) | 0.99 | < 5.00 | 0.691 | 6.69 | 0.844 | 5.21 | 0.991 | < 4.70 | 0.794 | 2.78 | 0.59 | 6.96 | 0.988 | < 4.70 | 0.991 | < 5.00 | 0.991 | < 5.29 | 0.991 | < 4.99 | 0.99 | < 6.00 |
| JHH-1 (liver, adherent) | 0.934 | < 5.00 | 0.858 | 6.03 | 0.957 | < 5.00 | 0.973 | < 4.70 | 0.493 | 3.62 | 0.63 | 6.82 | 0.255 | 6.64 | 0.985 | < 5.00 | 0.769 | 5.68 | 0.653 | 5.75 | 0.983 | < 6.00 |
| JHU-022 (head and neck, adherent) | 0.977 | < 5.00 | 0.448 | 7.36 | 0.855 | < 5.00 | 0.975 | < 4.70 | 0.772 | 2.71 | 0.79 | 6.23 | 0.881 | < 4.70 | 0.962 | < 5.00 | 0.951 | < 5.29 | 0.872 | < 4.99 | 0.979 | < 6.00 |
| JJN-3 (haematopoietic neoplasm, suspension) | 0.928 | < 5.00 | 0.904 | 6.04 | 0.916 | < 5.00 | 0.959 | < 4.70 | 0.289 | 4.14 | 0.814 | 6.36 | 0.209 | 6.67 | 0.942 | < 5.00 | 0.938 | < 5.29 | 0.625 | 5.88 | 0.991 | < 6.00 |
| JURL-MK1 (chronic myeloid leukaemia, suspension) | 0.973 | < 5.00 | 0.792 | 6.35 | 0.894 | < 5.00 | 0.726 | 5.26 | 0.73 | 2.95 | 0.639 | 6.81 | 0.356 | 6.30 | 0.934 | < 5.00 | 0.541 | 6.38 | 0.722 | 5.57 | 0.979 | < 6.00 |
| K2 (melanoma, adherent) | 0.863 | < 5.00 | 0.799 | 6.19 | 0.982 | < 5.00 | 0.977 | < 4.70 | 0.648 | 3.14 | 0.703 | 6.55 | 0.627 | 5.51 | 0.982 | < 5.00 | 0.765 | 5.61 | 0.975 | < 4.99 | 0.97 | < 6.00 |
| KELLY (neuroblastoma, adherent) | 0.975 | < 5.00 | 0.903 | < 6.00 | 0.853 | 5.17 | 0.841 | 4.92 | 0.652 | 3.20 | 0.829 | 6.25 | 0.747 | 5.23 | 0.981 | < 5.00 | 0.911 | < 5.29 | 0.884 | 5.03 | 0.987 | < 6.00 |
| KGN (ovary, adherent) | 0.924 | < 5.00 | 0.905 | < 6.00 | 0.899 | < 5.00 | 0.782 | 4.99 | 0.276 | 4.30 | 0.194 | 8.21 | 0.131 | > 7.11 | 0.974 | < 5.00 | 0.866 | < 5.29 | 0.675 | 5.66 | 0.978 | < 6.00 |
| KINGS-1 (glioma, adherent) | 0.955 | < 5.00 | 0.691 | 6.58 | 0.914 | < 5.00 | 0.956 | < 4.70 | 0.626 | 3.20 | 0.835 | < 5.99 | 0.767 | 4.99 | 0.97 | < 5.00 | 0.95 | < 5.29 | 0.874 | < 4.99 | 0.977 | < 6.00 |
